The campaign covered roughly 340,000 compounds. About 12,000 (3.5%) were called active. Inconclusive means that the source gave no clear call. Such entries were picked first, then a sample of the others. Calls come from the whole dose curve; as a rule, active = well fitted inhibition curve with a large enough effect; inconclusive = small, poorly fitted or top-dose-only effect, or another doubt; inactive = no such curve, though single readings can be large or run the other way. Potencies of inconclusive entries are left out as doubtful fits.
assay: qHTS Assay for Inhibitors of Hepatitis C Virus (HCV); conditions: Huh7.5.1 HCVcc-Cre (HCVcc is cell-culture hepatitis C virus) infection, luciferase reporter, 44 h; activity change, negative = inhibition: at 41.8 µM (top of the series) unless noted
Summary of the method: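 Infectious HCVcc-Cre (~0.5 moi) was added to cells just after compound, with cells seeded 4 h earlier at 1,000 per well. Luciferase activity after 44 h culture reported infection; substrate was incubated 15 min at room temperature before reading.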
% is set by controls: 0 for no effect and ±100 for the full control effect; potency is the fitted concentration of half-maximal effect; tags give direction and shape of the fitted curve.

Compound | Potency | activity change, negative = inhibition
Cc1cccc(NC(=O)COc2ccc3c(c2)CCC3)n1 | inconclusive [inhibitor, single point] | –
CN(CCOc1ccc(Cl)cc1)C(=O)c1ccc(S(=O)(=O)N2CCOCC2)cc1 | inconclusive [inhibitor, partial curve] | –
Cc1ccccc1C(=O)Nc1ccc(Br)cn1 | inconclusive [inhibitor, single point] | –
O=C(Nc1ccc(F)cc1)N1CCCN(c2ccc(C(F)(F)F)cn2)CC1 | inconclusive [inhibitor, single point] | –
Cc1ccc(S(=O)(=O)C2(C(=O)Nc3ccc4c(c3)OCO4)CC2)cc1 | inconclusive [inhibitor, single point] | –
CCCCN1CCc2c1nc1ccc(Br)cc1c2N | inconclusive [inhibitor, single point] | –
CCOC(=O)c1cc(-c2ccccc2)n(CCC(=O)N2CCN(c3ccc(OC)cc3)CC2)c1C | inconclusive [inhibitor, single point] | –
CC(C)CC(=O)NC(=S)Nc1nc(-c2cccc3ccccc23)cs1 | inconclusive [inhibitor, partial curve] | –
CCCCN(C(=O)c1cc(S(=O)(=O)N2CCCCC2)ccc1Cl)c1c(N)n(CCC)c(=O)[nH]c1=O | – | inactive: 16.2%
COc1ccc(-c2cc(N3CCCC3)n3ncnc3n2)cc1 | active: 12.6 µM | –
CCOCC(=O)N1CCC(Cc2ccccc2)CC1 | inconclusive [inhibitor, single point] | –
O=C(O)Cn1c(P(=O)(O)c2ccccc2)nc2ccccc21 | inconclusive [inhibitor, single point] | –
CCOC(=O)C(=CNc1ccc2c(c1)c1ccccc1n2CC)C(=O)OCC | active: 10 µM | –
CC(C)Oc1ccc(C(=O)Nc2ccccc2N2CCCC2)cc1 | inconclusive [inhibitor, partial curve] | –
CCC(C)C(=O)Nc1nnc(SCC(=O)Nc2ccc(F)cc2)s1 (configuration not stated) | inconclusive [inhibitor, single point] | –
COc1ccc(CN(C)C(=O)c2cc(-c3ccc(C)cc3C)nc3ccccc23)c(OC)c1OC | inconclusive [inhibitor, partial curve] | –
c1ccc(-c2cc3c(N4CCN(c5ncccn5)CC4)ncnc3s2)cc1 | inconclusive [inhibitor, partial curve] | –
CC(=O)Nc1cc2c3c(cccc3c1)-c1ccccc1-2 | inconclusive [inhibitor, full curve] | –
CC(C)Oc1ccc(C2c3c(oc4ccccc4c3=O)C(=O)N2CCCN2CCOCC2)cc1 (configuration not stated) | – | inactive: -5.53%
O=C(CCCn1c(=O)c2cccn2c2cccnc21)NCCc1ccc(Cl)cc1 | inconclusive [inhibitor, partial curve] | –
O=C(N/N=C/c1cccc(NC(=O)c2ccc(Cl)cc2)c1)c1cccc(O)c1 | inconclusive [inhibitor, partial curve] | –

Compound | Potency | activity change, negative = inhibition
COc1ccc(NS(=O)(=O)c2ccc3oc(SCC(N)=O)nc3c2)cc1 | inconclusive [inhibitor, partial curve] | –
COc1ccc(C(=O)NCCc2ccc(Cl)cc2)cc1S(=O)(=O)N1CCCCC1C (configuration not stated) | active: 8.91 µM | –
Nc1c(C(=O)OC2CCCCC2)c2nc3ccccc3nc2n1CC1CCCO1 (configuration not stated) | active: 10 µM | –
CS(=O)(=O)N(CC(=O)NCc1ccccc1)Cc1ccc(Cl)cc1 | – | inactive: 12.5%
Cc1ccc(C(=O)Cn2c(C(=O)O)cc3ccccc32)cc1 | inconclusive [inhibitor, single point] | –
Cc1csc(NC(=O)CSc2nnc3c4ccccc4nc(C(C)(C)C)n23)n1 | inconclusive [inhibitor, full curve] | –
Cc1ccc(CSCc2nc3ccccc3[nH]2)cc1 | inconclusive [inhibitor, single point] | –
CCCCCCn1c(COc2ccccc2F)nnc1SCC(=O)N1c2ccccc2NC(=O)C1(C)C | inconclusive [inhibitor, single point] | –
CCOc1ccccc1OCCCC(=O)Nc1sccc1C(N)=O | inconclusive [inhibitor, partial curve] | –
Fc1ccc(Nc2ccnc(Nc3ccc(F)cc3)n2)cc1 | inconclusive [inhibitor, single point] | –
COc1cccc(/C=C/C(=O)c2cccc([N+](=O)[O-])c2)c1OC | inconclusive [inhibitor, single point] | –
CCc1nn(C(C)C(=O)NCCN2CCN(c3cccc(C)c3C)CC2)c(=O)c2cc3occc3n12 (configuration not stated) | active: 1.78 µM | –
CC[C@@]1(C(=O)OC)N[C@H](CN(C)C(=O)Nc2ccc(OC)cc2)[C@@H]2C(=O)N(Cc3ccccc3)C(=O)[C@@H]21 | – | inactive: 3.61%
O=C(NC(=S)Nc1nc2ccccc2s1)c1cccs1 | – | inactive: -10.6%
O=C(Nc1cccnc1)c1ccccc1-c1nc(-c2ccccc2F)no1 | inconclusive [inhibitor, partial curve] | –
CC(=O)N1c2ccc(S(=O)(=O)NCCc3ccccc3)cc2CC1C (configuration not stated) | inconclusive [inhibitor, single point] | –
CCOc1ccc(NS(=O)(=O)c2ccc(C(=O)N3CCCC3)cc2)cc1 | inconclusive [inhibitor, single point] | –
O=c1[nH]c(CN2CCN(Cc3ccccc3)CC2)nc2scc(-c3ccccc3)c12 | inconclusive [inhibitor, partial curve] | –
CCN(CC)S(=O)(=O)c1cccc(NC(=O)C2CC(=O)N(c3ccc4c(c3)OCCO4)C2)c1 (configuration not stated) | inconclusive [inhibitor, partial curve] | –
COc1cc(C(=O)N2CCc3ccccc32)ccc1OCc1c(C)noc1C | inconclusive [inhibitor, single point] | –
O=C(CC12CC3CC(CC(C3)C1)C2)NC(=S)Nc1ccc(CN2CCOCC2)cc1 | – | inactive: -13.6%
